Experimental data published in the supplement of paper PMC3334620.
In all, about 33,000 sequences were measured (“E-score (-0.5 to 0.5)”: median about -0.012, highest 2% from about 0.27 on). Some of the results follow.

molecular target: T1, Vhr1 (UniProt P40522); experiment: PBM E-score (8-mer binding enrichment) (E-score (-0.5 to 0.5)); higher = stronger / more preferred TF binding; most listed sequences are background and not binding sites; conditions: protein concentration: 200 nM; construct: GST-full length
T1 sequence: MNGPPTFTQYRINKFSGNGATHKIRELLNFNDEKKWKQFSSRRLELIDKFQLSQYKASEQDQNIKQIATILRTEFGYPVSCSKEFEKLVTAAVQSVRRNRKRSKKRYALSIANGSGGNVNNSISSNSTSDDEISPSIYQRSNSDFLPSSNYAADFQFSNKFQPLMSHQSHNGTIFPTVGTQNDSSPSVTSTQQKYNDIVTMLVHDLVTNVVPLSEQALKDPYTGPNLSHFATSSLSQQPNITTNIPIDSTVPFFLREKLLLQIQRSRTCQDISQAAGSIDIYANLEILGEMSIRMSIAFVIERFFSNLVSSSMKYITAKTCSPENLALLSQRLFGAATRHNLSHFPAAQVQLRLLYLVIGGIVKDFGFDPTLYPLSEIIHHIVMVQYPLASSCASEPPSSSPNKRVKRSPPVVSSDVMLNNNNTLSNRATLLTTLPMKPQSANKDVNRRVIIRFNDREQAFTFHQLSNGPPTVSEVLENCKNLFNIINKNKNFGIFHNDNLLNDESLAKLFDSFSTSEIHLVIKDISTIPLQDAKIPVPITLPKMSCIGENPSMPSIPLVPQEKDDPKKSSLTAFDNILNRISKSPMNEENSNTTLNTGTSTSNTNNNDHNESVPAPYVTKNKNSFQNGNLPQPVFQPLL
Outline: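 Yeast transcription factors, full-length or as DNA-binding domains, were expressed with a GST tag using PURExpress in vitro transcription/translation. At about 100-200 nM they were applied to universal all-10-mer Agilent arrays, double-stranded by primer extension on fresh or once-stripped slides. Fluorescent anti-GST detected bound protein, and masliner normalised the scans. E-scores for ungapped eight-base words, pooled with reverse complements, came from the Universal PBM Analysis Suite.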

Sequence	PBM E-score
GCGTGGAC	-0.205
CGTGTCTA	0.124
GCGACGCA	-0.107
TGTACTAA	-0.0497
ACGCGAAC	-0.0904
CGGTGCAA	-0.126
TGCCGCAA	-0.0274
CTCACCAG	0.258
ACCAAGTC	-0.0372
CCCCGACA	-0.0336
AATTCCGT	-0.0981
CAATTCAC	-0.124
TGAGCACA	0.0663
ACGTACCT	-0.104
CCTCACGC	0.0696
ACGCATGA	0.249
CTCAGCTA	-0.159
AGAAACTA	-0.165
TATGAGAA	-0.0101
AGGAACAT	-0.0758
CGTTATTC	0.0744
AGCATGTA	-0.116

Sequence	PBM E-score
GCTGAGAA	0.00573
CTTATGAC	0.0571
GAATTCGA	-0.135
ATAGAGAG	-0.248
TGTTGCAA	0.172
TATGAGCA	0.11
GGTATACC	0.126
CACCGAGC	0.249
GGGGACCA	0.167
AGTGTTCC	-0.0468
CCATGCAC	0.0697
ACTTTTCC	-0.00919
AAAGCGGC	-0.212
CTCTCTTA	-0.144
CGAAGTTA	-0.0266
ACTTTAAA	-0.0302
AGACGTGG	-0.00569
AGTGCTCA	0.014
ACCGAGGT	-0.0505
CGAATAAC	0.0152
GTGTTCAA	-0.0451
GAGCCAGC	0.091

Sequence	PBM E-score
CCTCACCG	0.113
CCCCCGAC	-0.0669
AATCCTGT	0.0793
CAAGCTCA	-0.0515
AGCGGTGG	-0.151
CGATTATA	-0.0548
AAGTCCTC	-0.079
ATGACGCG	0.162
CTCACTTA	0.145
CGCCCTAG	0.0143
CACGTGGA	0.0456
AACTGTCC	-0.0925
CTCGTAAA	-0.22
CATGTTTC	0.155
TGATTGAA	0.18
AGGCCCGA	-0.0896
ATTTATCA	0.165
ACGAAAGA	-0.0866
CCCGGCAG	-0.0362
CAAGGATC	-0.0321
ACTAGATC	-0.0743
ATGCGTGG	-0.0769

Sequence	PBM E-score
ACCTAACG	-0.0921
ATCCGTGA	0.0715
ATCTAAGG	-0.141
GACCTCGA	0.0768
TTGAACAA	-0.106
AAAGTGTA	-0.0832
TCGCTTAA	-0.0577
AGACCGTA	-0.194
CCCGCGAC	0.193
AGTTAGCG	0.0107
GAGCGGCA	-0.0343
CAAGCCCC	-0.067
CAGTGACA	0.00649
ATATAAAT	0.106
AACCCAAA	-0.158
ACTAGCTG	0.217
GGACTCAA	0.143
ATAACGAG	-0.147
GGAACGCA	-0.095
CACTTAGA	-0.117
